B1: CPEB3 Ribozyme (parent)
chain: UAACAGGGGGCCACAGCAGAAGCGUUCACGUCGCAGCCCCUGUCAGAUUCUGGUGAAUCUGCGAAUUCUGCUGUAUAUCUC

Read counts are not given, so values of variants with three or more changes are uncertain.

In this data set the parent is B1. Description: self-cleavage, relative activity (ratio to wild type); higher = more cleavage; in vitro, sequencing. The procedure, abridged: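 For each CPEB3 ribozyme variant, relative activity is its cleaved/total read fraction divided by the unmutated ribozyme's. Barcoded error-prone PCR libraries were transcribed by T7 RNA polymerase (5 hours, 37°C) and held in DNase I for 15 min before an EDTA stop, with cleavage occurring throughout. Template-switching reverse transcription and Illumina sequencing were used to read the RNAs. A 5-read minimum applied, and results are the mean of three batches.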
Consider U51C A56G A57U, for which the self-cleavage amounted to 0.3.

Regarding U54A A56G A57G, the self-cleavage is 0.32. A57U U60A U72G U78A: the self-cleavage came out at 0.38. For A57G U67C C81U, the self-cleavage was determined as 0.15. Regarding U54C U60C A64G, the self-cleavage came out at 0.37. On to A56G U78C U80A, for which the self-cleavage was 0.65. Take U58C U66C U69C U72C: the self-cleavage amounted to 0.26. On to U60A A64G A75U, for which the self-cleavage worked out at 0.37.

On to U60A A64G A75C, for which the self-cleavage is 0.52. For the variant A56U G63A A65G, the self-cleavage is 0.36. On to U51C U54A A64G U72C U78A U80A, for which the self-cleavage is 0.66. For U48C A57G A65G the value was 0.51. On to G53A U67C C79U, for which the self-cleavage came to 0.52. Turning to U51C U60C A65G, the self-cleavage was determined as 0.36. A56G A64G A65G: the self-cleavage stood at 0.33. In the case of U49C A65G U69A C71U U72C, the self-cleavage is 0.1.

Take U48C U58C A64G U78C: the self-cleavage came out at 0.08. For U48C A65G A77G the value was 0.18; for A56G C62U U72A, 0.28. For U49C G53U U78C the value was 0.2; for U51C U67C U78C, 0.63; for G52U U54G A57G, 0.92. U51C U58A A75G: the self-cleavage is 0.19. On to U54G G73A U80C, for which the self-cleavage turned out to be 1.32. For A65G U66A C71U U72C the value was 0.22. On to U51C G52U U54C, for which the self-cleavage came out at 1.18. For the variant A64G U67A U72C C79U, the self-cleavage turned out to be 0.24. Take U51C G52U U58C U67C: the self-cleavage is 0.19. Regarding U51C U72A U76A, the self-cleavage is 0.29. Consider A56G U60C U72A, for which the self-cleavage turned out to be 0.39. On to G55U A75G C79A, for which the self-cleavage stood at 0.83.

Turning to U48C C79G U80C, the self-cleavage was 0.82. For U58A A64U G73U U74C the value was 0.19; for U49G U58C A64G, 0.16; for G55U U60G U69C, 0.19. For U51G U54G U69C the value was 0.19; for C62U A64G U69C U80A, 0.3; for U48C U54A A64U U67C U72G U80C, 0.21. As for U58C U69C C81U, the self-cleavage is 0.2.

Take U51A G55U U60C G63A U74C U76A: the self-cleavage worked out at 0.55. For A56U G61C U67A the value was 0.44; for U48C U58C U72C G73U U78A, 0.22. For the variant U58G U76C A77G, the self-cleavage turned out to be 0.37. As for A56G C62G U72C, the self-cleavage was determined as 0.43. U49C A56U U76A: the self-cleavage is 0.79. For U48C U54C A64G U74C the value was 0.48. As for A56G U60C G73C, the self-cleavage was 0.55. As to U49C U54C A65G, the self-cleavage stood at 0.31.

On to U49C U51C U78C, for which the self-cleavage came out at 0.42.

For U49C U51C U80C, the self-cleavage was found to be 0.59. For U60C U69A U72G the value was 0.29; for U51G A65G U67C U72C, 0.33. For U49C U60A U72C, the self-cleavage was determined as 0.13. Turning to G63A U72C A77G, the self-cleavage amounted to 1.12. Consider A56G U66A U76A U78C, for which the self-cleavage came out at 0.24. For the variant U54C U72G U78C, the self-cleavage was found to be 1.17. As for A64U U69C G70C, the self-cleavage was 0.21. As to U60C G70A U76C, the self-cleavage is 0.48. For U54A U69C A77C U78A the value was 0.68; for G63A U72C U80C, 1.18. For U48C A56G A57G the value was 0.69; for U49C U60A U76C, 0.12.

For the variant C62U U66C U69A U78C, the self-cleavage was 0.16. U54A G61A C62U: the self-cleavage was 0.25. A56G C71A U72C U78C U80G: the self-cleavage was 0.61. A64G U72C A75G U80A: the self-cleavage came to 0.92.

As for A56U U69C A75U, the self-cleavage came out at 0.48. For U48C U49C A75G the value was 0.13. With U51G U58C G63U, the self-cleavage was 0.37. For G63C A64G U80C the value was 0.84. For A57U U58C A64U A65U the value was 0.14; for U48C U66C U74C, 0.33; for U48C U54C U69A, 0.26. U58C U60C U76C: the self-cleavage was determined as 0.18. In the case of U48C G55U A75G, the self-cleavage worked out at 0.23. For G52U A57G A64G the value was 0.92. For G52C U60C A64U U78C the value was 0.24. Consider U51A U58A U69C U72A, for which the self-cleavage amounted to 0.41.

Take A56G A65G U72C: the self-cleavage stood at 0.29.

For U48C G53A U54C U78C, the self-cleavage stood at 0.16. U51A A77G U78C: the self-cleavage was 0.79. Turning to U49C G53A C59A U74A U76G, the self-cleavage was 0.07. Regarding G52A U76C A77U, the self-cleavage worked out at 1.34.

On to U60G C68A U80C, for which the self-cleavage stood at 0.36. U51A A56G U72C A77G: the self-cleavage worked out at 0.68. For the variant U66A U72C U80C, the self-cleavage came out at 0.69. With U69A U72A G73C, the self-cleavage is 0.88. Consider A65G U72C C81U, for which the self-cleavage came to 0.81. For U51C G61A U69C U76C, the self-cleavage came out at 0.62. Turning to A56G C59U U60C U67A, the self-cleavage was 0.13.

On to A56U U69G U72A, for which the self-cleavage is 0.25. With U48C A56G U69A, the self-cleavage is 0.19. Regarding A57G U69C G70A, the self-cleavage came to 0.37.

Take U48C A64U U67C: the self-cleavage was determined as 0.47. A57G U66C C81G: the self-cleavage came out at 0.15. Turning to U48C U69A U74A, the self-cleavage turned out to be 0.15. On to U48C U54C A57U, for which the self-cleavage was found to be 0.26. Turning to U48C U54C A57G, the self-cleavage turned out to be 1.

Consider U49C U60A U69C, for which the self-cleavage came out at 0.15.

With U51C U60C G70U, the self-cleavage stood at 0.32.

As to U48C U66C U76A, the self-cleavage was found to be 0.2. For the variant U48C U51G U80C, the self-cleavage was found to be 0.46. For the variant U54G U58C A64G, the self-cleavage worked out at 0.16.

For the variant U51A A64G U72G, the self-cleavage was found to be 0.62. As for U54C U60C A65G, the self-cleavage amounted to 0.1. Take U58C U60C A65C G73C: the self-cleavage was 0.16. For U49C U51C U67C U69A the value was 0.14. Consider U51C U54A U74C, for which the self-cleavage was 1.26. As to U49A U51A U78G, the self-cleavage was 0.3. Take U49C U51A A56U: the self-cleavage was determined as 0.75. In the case of A56G A64U C68A U76C, the self-cleavage stood at 0.16.

Take G63A A64G U80C: the self-cleavage was 0.64. U48C U72C C79A: the self-cleavage is 0.53. On to U49A U60A U80C, for which the self-cleavage is 0.17.

On to U51A A57C U72C, for which the self-cleavage is 0.68. With A57U U72C U78C, the self-cleavage is 0.91. Take U58C U69A A77G: the self-cleavage was 0.36.

Consider U48C U49C C59A, for which the self-cleavage was determined as 0.11. Regarding U54C A65G U74C U78C, the self-cleavage turned out to be 0.85.

With U49A U66C U72A, the self-cleavage amounted to 0.34. For U48C U49C U60A U69A U78C the value was 0.06; for U60A A65G U76C, 0.38. For G53A U54C U69A, the self-cleavage was determined as 0.8. As for U51A A56G C62U, the self-cleavage worked out at 0.25. In the case of A64G A65G U66C U76A, the self-cleavage stood at 0.56. Consider A64U U66C U69C, for which the self-cleavage amounted to 0.3. Turning to U48C U67C U72A U76C, the self-cleavage was determined as 0.06. With U66C U67C U72A U76A, the self-cleavage worked out at 0.13. Consider U58C G70U U72C, for which the self-cleavage came out at 0.44.

For A56G U69C C81A, the self-cleavage is 0.94. U49A A77G U80A: the self-cleavage worked out at 1.02. For U51G A57G U67C U72C the value was 0.17; for U49A U51C G52A U66A, 0.42; for U66C A75U U78A, 0.43. For U54A U60C C62A the value was 0.32; for U48C U58C A77U, 0.31. In the case of U69C U72A U78C, the self-cleavage amounted to 0.31.

As for A56G A65U U80C, the self-cleavage was 0.17.

Regarding U48A U66C U78A, the self-cleavage came to 0.1. Turning to U48C G70C U76C, the self-cleavage was determined as 0.1. In the case of U60A U66C G73A, the self-cleavage is 0.29. With U48C U67C U78C, the self-cleavage is 0.35. Turning to U58A A75G U80C, the self-cleavage came out at 0.14.

G52U A64G U66C U78A: the self-cleavage was 0.32. For U49C U58C A64G the value was 0.28. With U48C G61C U67C, the self-cleavage was 0.15. With U48C C71U U72A U76A, the self-cleavage was 0.34. For the variant A56G U72A U76C, the self-cleavage was found to be 0.38. Take U51C A56U A57G A77G: the self-cleavage amounted to 0.2. U51C A64G U66C U80C: the self-cleavage was 0.24.

In the case of G52A G70A U74C U80C, the self-cleavage came out at 0.76. As for G53C A57G A65C U66G, the self-cleavage worked out at 0.11.

As to U54C A56G A64U, the self-cleavage was 0.49. For G63A U66C U72C, the self-cleavage turned out to be 0.48. Turning to A56G U67C U72A, the self-cleavage came out at 0.23. With U49C C59A U78G, the self-cleavage is 0.12. For U49C U58C C68U the value was 0.14. For the variant U48C A57G A75G, the self-cleavage stood at 1.14. For U67C U69C U72A the value was 0.29. Consider A56U C59A A77U, for which the self-cleavage is 0.06. As for U49C U60C C62U, the self-cleavage was determined as 0.09. Consider C62U A65G U67C, for which the self-cleavage was found to be 0.5. On to U67A U72G U78C, for which the self-cleavage stood at 0.34. For U60C U72C A75G U80C the value was 0.54; for U49C U58C C62U, 0.23. As to U66G U67C C71A, the self-cleavage was determined as 0.24.

For C62U U74A A77U, the self-cleavage is 0.2.
